PubChem BioAssay AID1963576 (National Center for Advancing Translational Sciences (NCATS), 2024)
Hit rate of the full screen: of about 46,000 compounds, about 60 (0.1%) were called active. About 3% were inconclusive and are not listed. The call rests on the fitted dose curve; in most records, active means well fitted inhibition curve with a large enough effect; inconclusive means small, poorly fitted or top-dose-only effect; inactive means no such curve, though single readings can be large or run the other way. The list shows a part of the results.

Assay: Primary qHTS assay for Inhibitors of ovarian cancer metastasis using an organotypic tumor microenvironment (TME) model. Further: nearly all actives have a fitted effect of over 65% in size.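 On Potency: count of GFP cancer cells still attached after washing and fixation.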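 On activity change, negative = inhibition: plate controls were DMSO wells for no effect and tomatine positive control wells for full effect.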
Details: SKOV3ip1-GFP adhesion/invasion on 3D omental model, fluorescence; series mostly up to 45.8 µM; activity change, negative = inhibition: at the top concentration
In short: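 qHTS, 4-pt dose (0.36-46 umol/L); SKOV3ip1-GFP, 1,200 cells/well, no FBS; primary omental fibroblast/mesothelial co-culture 48 h pre-grown; 2 h RT + 16 h 37 C; PBS wash, 4% PFA; GFP count 488/509 nm.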
Potency means the concentration at half of the fitted maximal effect.

Row | Compound | activity change, negative = inhibition | outcome | Potency
1 | COc1cc(OC)c(NC(=O)C2CCCN(c3ncnc4c3nc3n4CCCCC3)C2)cc1Cl (stereo not given) | inactive: 2.6% | – | –
2 | Cc1ccccc1-c1nc(CS(=O)(=O)CC(=O)NCC(C)c2ccccc2)c(C)o1 (stereo not given) | – | inactive | –
3 | CCc1ccccc1NC(=O)Cn1c(=O)n(Cc2ccc3c(c2)OCO3)c(=O)c2ccc(C(=O)NC3CCCCC3)cc21 | inactive: -10.5% | – | –
4 | CCCc1nn2c(=O)cc(COC(=O)c3cccc(NC(=O)COc4ccccc4C)c3)nc2s1 | – | inactive | –
5 | Cc1cccc(OCCn2c(-c3ccc(Cl)cc3)nc3ccccc3c2=O)c1 | inactive: -6.04% | – | –
6 | O=C(NCCc1ccccc1)c1cnc2sc(N3CCCC3)nn2c1=O | inactive: 4.74% | – | –
7 | COc1ccccc1N1CCN(C(=O)c2nn(-c3ccc(C)cc3)c(=O)n(C)c2=O)CC1 | inactive: 2.62% | – | –
8 | COCCCNC(=O)c1oc2c(c1C)-c1nn(Cc3cccc(Cl)c3)cc1CC2 | inactive: -0.025% | – | –
9 | CC(=O)c1c(C)nc2nc(-c3ccccc3)nn2c1C | – | inactive | –
10 | CCCCOc1ccc(C(=O)N2CCN(CCc3ccncc3)CC2)cc1 | inactive: 3.02% | – | –
11 | COC(=O)C1=C(CS(=O)(=O)c2cc(Cl)ccc2OC)NC(=O)NC1c1ccccc1 (stereo not given) | inactive: -22.4% | – | –
12 | COc1cc(NS(=O)(=O)c2ccc3c(c2)CCN3S(C)(=O)=O)cc(OC)c1 | inactive: 7.2% | – | –
13 | Cc1cc2nnc(SCC(=O)Nc3ccc(F)c(Cl)c3)n2c2ccccc12 | inactive: -6.93% | – | –
14 | CC1Cc2cc(S(=O)(=O)N3CCN(c4ccccc4F)CC3)ccc2N1C(=O)C1CCC1 (stereo not given) | inactive: -0.171% | – | –
15 | CCOC(=O)c1ccc(Nc2c(-c3ccc(O)c(OC)c3)nc3nc[nH]n23)cc1 | inactive: 0.179% | – | –
16 | CCCn1ccc2c(OCC(=O)NCc3ccc(C)cc3)cccc2c1=O | inactive: -0.303% | – | –
17 | Cc1ccc(CNC(=O)C2CCCN(S(=O)(=O)c3cccc4nsnc34)C2)cc1 (stereo not given) | inactive: 20.7% | – | –
18 | CCc1ccc2c(c1)c(=O)c(S(=O)(=O)c1ccc(F)cc1)cn2CC(=O)Nc1ccc(C)cc1C | inactive: -3.56% | – | –
19 | CS(=O)(=O)OCCCCOS(C)(=O)=O | inactive: -9.92% | – | –
20 | CCc1nn2c(=O)cc(COC(=O)c3cccc(NC(=O)c4ccccc4Cl)c3)nc2s1 | inactive: 19% | – | –
21 | Cc1cc2ncn(CCCCOc3ccccc3)c2cc1C | – | inactive | –
22 | CN1CCC[C@H]1CCO[C@](C)(c1ccccc1)c1ccc(Cl)cc1 | inactive: 3.49% | – | –
23 | COc1ccc(CNC(=O)c2cnc3sc(N4CCCC4)nn3c2=O)cc1OC | inactive: 20.8% | – | –
24 | O=C(CSc1c2c(nc3ccc(Cl)cc13)CCCC2)N1CCN(c2cccc(Cl)c2)CC1 | inactive: -8.77% | – | –

Row | Compound | activity change, negative = inhibition | outcome | Potency
25 | Cc1ccc2c(c1)C(c1ccc(F)cc1)N(C(=O)COc1ccc(Cl)cc1Cl)CC(=O)N2 (stereo not given) | inactive: 0.634% | – | –
26 | CCN(CCCNC(=O)c1cc2c(=O)n(C)c3ccccc3c2s1)Cc1ccccc1 | – | inactive | –
27 | COc1cc(NC(=O)CC2C(=O)N(c3ccc(Cl)cc3)C(=O)N2Cc2cccs2)cc(OC)c1 (stereo not given) | inactive: -1.92% | – | –
28 | Cc1ccc(C(=O)NCc2ccc(N(C)C)cc2)cc1NC(=O)c1nsc2ccccc12 | inactive: -16.7% | – | –
29 | CCOC(=O)c1c(C)[nH]c(CCC(=O)Nc2cc(C)ccc2OC)c1C | – | inactive | –
30 | COc1cc(-c2nnn(CC(=O)Nc3ccc(OC(F)(F)F)cc3)n2)cc(OC)c1OC | – | inactive | –
31 | CC1CCC(NC(=O)c2ccc3c(c2)N(Cc2ccccc2)C(=O)c2ccccc2S3=O)CC1 (stereo not given) | – | inactive | –
32 | CCOC(=O)c1cccc(NC(=O)CN2C(=O)c3ccccc3Sc3ncccc32)c1 | inactive: 28.6% | – | –
33 | O=C(Cn1ncc2c1-c1ccccc1OC2)N1CCN(c2ccccc2F)CC1 | inactive: 4.78% | – | –
34 | COc1ccccc1CNC(=O)C1CCCN(S(=O)(=O)c2ccc3c(c2)CCCN3C(C)=O)C1 (stereo not given) | inactive: -0.5% | – | –
35 | Cc1cccc(C)c1NC(=O)c1oc2ccc3c(c2c1C)C(=O)CC(C)(C)O3 | – | inactive | –
36 | Cc1cc2oc(C(=O)Nc3c(C(=O)Nc4ccccc4)oc4ccccc34)cc(=O)c2cc1C | inactive: -6.81% | – | –
37 | Cc1cccn2c(=O)c(C(=O)NCCCN3CCCCC3C)c(O)nc12 (stereo not given) | – | inactive | –
38 | Cc1nnc(NCc2ccccc2)c2c1nnn2Cc1ccccc1Cl | inactive: -14.2% | – | –
39 | O=C(CSCc1ccccc1Cl)N1CCN(c2ccc(F)cc2)CC1 | inactive: -0.153% | – | –
40 | CN1C(C(=O)Nc2ccc(F)cc2F)=CC(c2ccco2)=NS1(=O)=O | inactive: 9.07% | – | –
41 | C[C@H](NCc1ccc2c(c1)nc(NC(=O)c1ccc(-c3cn[nH]c3)s1)n2CCc1ccccc1)C(C)(C)C | – | – | active: 18.7 µM
42 | CCOc1ccc(N(C(=O)Cn2nnc3ccccc32)C(C(=O)NCc2ccccc2)c2ccc(OC)cc2)cc1 (stereo not given) | – | inactive | –
43 | CCOC(=O)c1cc(-c2ccccc2)n(-c2cccc(C(=O)Nc3ccc(OC)cc3)c2)c1C | inactive: -9.02% | – | –
44 | O=C(Cn1c(=O)c2cccn2c2ccccc21)Nc1cc(F)ccc1F | inactive: 2.51% | – | –
45 | CC(C)(C)C1CCc2c(sc(NC(=O)Cn3nnc(-c4ccccc4F)n3)c2C#N)C1 (stereo not given) | inactive: -13.4% | – | –
46 | CCc1ccc(-c2nn(CC(=O)Nc3ccccc3)c3c2cnc2ccc(F)cc23)cc1 | inactive: 2.3% | – | –
47 | COc1ccc(N2CCN(C(=O)c3cn(CC(C)C)c(=O)c4c3c3ccccc3n4C)CC2)cc1 | inactive: -6.25% | – | –
48 | N#CCNC(=O)c1ccc(-c2ccnc(Nc3ccc(N4CCOCC4)cc3)n2)cc1 | inactive: -12.3% | – | –

Row | Compound | activity change, negative = inhibition | outcome | Potency
49 | CC(=O)Nc1cccc(NC(=O)C(=O)NCCc2sc(-c3ccccc3)nc2C)c1 | inactive: 1.03% | – | –
50 | COc1ccc(OCC(=O)OCc2cc(=O)n3nc(C4CCCCC4)sc3n2)cc1 | inactive: -3.62% | – | –
51 | Cc1ccc(CCNC(=O)Cn2nc(-c3ccc(C)cc3)ccc2=O)cc1 | inactive: -2.21% | – | –
52 | CCN(CC)CCNC(=O)c1cn(CC)c2ccc(S(=O)(=O)N3CCOCC3)cc2c1=O | inactive: 2.24% | – | –
53 | CC(=O)N1CCCc2cc(S(=O)(=O)N3CCC(C(=O)NCc4ccc(C)cc4)CC3)ccc21 | inactive: 2.3% | – | –
54 | CCC(C(=O)NCCc1ccc(SC)cc1)n1nc(C)c2sc3ccccc3c2c1=O (stereo not given) | inactive: -3.07% | – | –
55 | COC(=O)c1ccccc1NC(=O)Cn1c(=O)n(-c2cccc(OC)c2)c(=O)c2c(C)c(C(=O)N(C)C)sc21 | – | inactive | –
56 | Cc1onc(-c2ccccc2Cl)c1C(=O)Oc1cc(F)cc(F)c1 | inactive: 0.949% | – | –
57 | COc1ccc(-c2[nH]ncc2C(=O)NCc2ccccc2C)cc1 | inactive: -3.43% | – | –
58 | COCCNCCCn1c(C(=O)CF)c(-c2ccc(C)cc2)c2c(N)ncnc21 | inactive: -12% | – | –
59 | O=C(c1ccc2c(c1)N(Cc1ccc(F)cc1)C(=O)c1ccccc1S2=O)N1CCC(Cc2ccccc2)CC1 (stereo not given) | inactive: 3.89% | – | –
60 | Cc1ccc(C)c(NC(=O)CSc2ncc(S(=O)(=O)c3ccc(C)c(Cl)c3)c(=O)[nH]2)c1 | – | inactive | –
61 | CSc1cccc(Nc2nc3c(S(=O)(=O)c4ccccc4)nnn3c3ccc(Cl)cc23)c1 | inactive: 4.85% | – | –
62 | O=C(Cn1ncc2ccc(Cl)cc21)NCc1ccc(F)cc1 | inactive: -0.492% | – | –
63 | Cc1ccc(C(=O)Nc2cccc(C(=O)O)c2)cc1S(=O)(=O)N1CCCC1 | inactive: -10.3% | – | –
64 | C=C1[C@H](n2cnc3c(=O)[nH]c(N)nc32)C[C@H](O)[C@H]1CO | inactive: -8.74% | – | –
65 | Cc1c(Cl)cccc1NC(=O)Nc1nnc(N2CCCCCC2)s1 | inactive: 11.6% | – | –
66 | COc1ccccc1NC(=O)c1cccc(S(=O)(=O)N2CCCCCC2)c1 | inactive: 0.909% | – | –
67 | CC1(C)CC(O)CC(C)(C)N1[O] | inactive: 1.98% | – | –
68 | CCc1ccc(CNC(=O)c2ccc(NC(=O)N3CCCCc4ccccc43)cc2)cc1 | – | inactive | –
69 | CCC1CN(C(=O)N2CCC(C(=O)NCc3cccc(C)c3)CC2)c2ccccc2O1 (stereo not given) | – | inactive | –
70 | C=C(C)CSc1nc2sc3c(c2c(=O)n1-c1ccccc1)CC(C(C)C)OC3 (stereo not given) | – | inactive | –
71 | COC(=O)c1scc(-c2ccc(C)cc2)c1S(=O)(=O)Nc1cc(OC)c(OC)c(OC)c1 | – | inactive | –
72 | COc1ccc(CNC(=O)c2c3c(nc4ccccc24)C(=O)N(C2CCCCC2)C3)c(OC)c1 | inactive: 10.6% | – | –

Row | Compound | activity change, negative = inhibition | outcome | Potency
73 | CCOc1ccccc1N(CC)C(=O)c1cc2c(=O)[nH]c3ccc(C)cc3c2s1 | inactive: -0.198% | – | –
74 | CCCCC(CC)CNC(=O)CN1C(=O)CSc2ccc(S(=O)(=O)N3CCOCC3)cc21 (stereo not given) | inactive: 7.36% | – | –
75 | O=C(Cn1c(=O)nc(-c2ccccc2F)c2cc(Cl)ccc21)N1CCN(c2ccccc2F)CC1 | inactive: -3.02% | – | –
76 | CC(=O)Nc1nonc1-c1nnc(SCC(=O)N(C)c2ccccc2)n1C | inactive: -3.42% | – | –
77 | CCN(c1cccc(C)c1)S(=O)(=O)c1ccc2[nH]cc(C(=O)NCCCOC)c(=O)c2c1 | – | inactive | –
78 | Cc1ccc(NC(=O)/C(C#N)=C/c2ccc(C(C)C)cc2)cc1C | inactive: 6.89% | – | –
79 | O=C(Cn1cc(S(=O)(=O)Cc2cccc(Cl)c2)c2ccccc21)NCCc1ccccc1 | inactive: -11.8% | – | –
80 | Clc1cccc(-n2ncc3c(N4CCCCC4)ncnc32)c1 | – | inactive | –
81 | Cc1nnc(C(C)C)n1C1C[C@H]2CC[C@@H](C1)N2CC[C@H](NC(=O)C1CCC(F)(F)CC1)c1ccccc1 (stereo not given in full) | inactive: 6.93% | – | –
82 | CCOC(=O)c1cnc2c(C)c(Cl)ccc2c1NCCc1ccccc1 | inactive: 0.314% | – | –
83 | COc1ccc(CNC(=O)C(=O)Nc2ccc(OC)cc2OC)cc1 | inactive: 1.73% | – | –
84 | CC(=O)c1ccc(N2CCN(C(=O)CCCCn3c(=O)[nH]c4ccccc4c3=O)CC2)cc1 | inactive: -8.52% | – | –
85 | CCOc1cccc2sc(N3CCN(C(=O)C4CC4)CC3)nc12 | – | inactive | –
86 | Cc1cccc(N2CCN(C(=O)c3ccc4c(c3)N(Cc3cccc(Cl)c3)C(=O)c3ccccc3S4=O)CC2C)c1 (stereo not given) | inactive: 2.82% | – | –
87 | CCOc1cccc(NC(=O)CSc2ncc(-c3ccccc3)[nH]2)c1 | inactive: -0.582% | – | –
88 | CCCn1cc(S(=O)(=O)c2ccc(CC)cc2)c(=O)c2cc(F)c(N(CC)CC)cc21 | inactive: 8.39% | – | –
89 | Cn1c(=O)c2c(-c3ccccc3)n3c(c2n(C)c1=O)C(c1ccco1)Nc1ccccc1-3 (stereo not given) | inactive: 8.92% | – | –
90 | COc1ccc(Cl)cc1CNCCSc1nnnn1C | – | inactive | –
91 | COc1ccc(C(=O)Nc2nc3c(s2)CCCC3)cc1Cl | inactive: -6.93% | – | –
92 | COc1ccc(OC)c(CNC(=O)c2nn(C)c3c2CSc2ccccc2-3)c1 | inactive: -4.25% | – | –
93 | Fc1cccc(Cl)c1Cn1c(-c2cccs2)nc2ccccc21 | – | inactive | –
94 | O=C(O)c1c(CNCc2cccc(F)c2)c2ccccc2n1Cc1ccccc1 | inactive: 8.05% | – | –
95 | Cc1cc(-c2ccc(C)c(S(=O)(=O)NCC3CCN(Cc4ccc(F)cc4)CC3)c2)on1 | inactive: 4.1% | – | –
